No constants are given. Whether binding was seen depends on the method and setting. Binding seen in cells or lysates may run through a third protein. Some entries that bind do so weakly or less than the wild type.

By UniProt entry, the sequences of proteins in these tests, tags left out. Residues count along the entry.
UniProt P42081, residues 24-329: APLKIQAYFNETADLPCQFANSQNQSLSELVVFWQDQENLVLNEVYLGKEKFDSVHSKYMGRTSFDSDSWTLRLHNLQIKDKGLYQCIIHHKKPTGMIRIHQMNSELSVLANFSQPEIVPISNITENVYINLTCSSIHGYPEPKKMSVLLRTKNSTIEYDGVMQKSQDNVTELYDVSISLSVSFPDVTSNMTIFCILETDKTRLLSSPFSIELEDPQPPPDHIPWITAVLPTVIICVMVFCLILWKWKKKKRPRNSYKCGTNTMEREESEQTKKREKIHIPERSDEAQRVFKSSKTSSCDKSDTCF

Experiment [1] has as its target CD86 (human (endogenous in MDA-MB-231)) (UniProt P42081). The experiment is described as follows: co-IP; whole-cell lysates (400 ug) of MDA-MB-231 cells with tagged OPTN vectors; 3 ug antibody and protein A/G magnetic beads overnight at 4 °C in TBS with 0.4% NP-40; western blot; cells alone, with 3T3-L1 adipocyte coculture, or coculture plus Etomoxir. Background: A western blot detects proteins with antibodies after separation by electrophoresis.

For experiment [2], the target named is CD80 (human (endogenous in MDA-MB-231)) (UniProt P33681). The description is as above.
Experiment [3] has as its target CD86 (human (endogenous in MDA-MB-231)) (UniProt P42081). The experiment in a line: co-IP; whole-cell lysates of BafA1-treated MDA-MB-231 cells, untagged OPTN and CD80/CD86; 3 ug antibody and protein A/G magnetic beads overnight at 4 °C in TBS with 0.4% NP-40; western blot; cells alone, with 3T3-L1 coculture, coculture plus Etomoxir, or coculture with PCSK9 knockdown.

Experiment [4] addresses CD80 (human (endogenous in MDA-MB-231)) (UniProt P33681). Described as above.

Regarding “Flag-OPTN (full-length optineurin) (from UniProt Q96CV9 1-577)”, the binding entry in experiment [1] and in experiment [2] was “binds” each time.
With “Flag-OPTN^UBD (OPTN with a deletion of 408-507aa in the UBD domain) (from UniProt Q96CV9 1-577)”, the binding entry in experiment [1] and in experiment [2] was “no binding” each time.
“OPTN (in MDA-MB-231 cells, untagged) (from UniProt Q96CV9 1-577)”: the binding result in experiment [3] and in experiment [4] was “binds” each time.

These data come from PMC13601526.
